Data taken from article PMC12820563, “FoxP3 forms a head-to-head dimer in vivo and stabilizes its multimerization on adjacent microsatellites”.
Some of the results follow.

Target: T1, MBP-FoxP1dN (Mus musculus, UniProt P58462 326-579)
T1 sequence: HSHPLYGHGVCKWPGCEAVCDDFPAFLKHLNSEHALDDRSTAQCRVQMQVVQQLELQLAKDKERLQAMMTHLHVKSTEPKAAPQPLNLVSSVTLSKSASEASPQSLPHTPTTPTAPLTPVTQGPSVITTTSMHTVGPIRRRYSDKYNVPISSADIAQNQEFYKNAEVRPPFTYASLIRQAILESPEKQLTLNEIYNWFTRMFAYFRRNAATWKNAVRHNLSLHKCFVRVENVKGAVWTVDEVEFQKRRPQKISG
Assay: PD-seq (MBP pull-down with sequencing); 20 mM Tris-HCl pH 7.5, 100 mM NaCl, 1.5 mM MgCl2, 0.4 uM protein, 0.1 uM dsDNA library, 30 min, room temperature, amylose pull-down; high values mean tight binding
Settings: protein: recombinant; tags: His6-MBP; chain copies: 2; dsDNA, one strand shown
How it was run: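 A degenerate double-stranded DNA library, filled in with Klenow, was added at 0.1 µM to 0.4 µM His6-MBP-tagged mouse FoxP3 or FoxP1 fragment lacking the N-terminus, expressed in E. coli. Incubation lasted 30 min at room temperature in Tris pH 7.5 buffer with NaCl and MgCl2, after which complexes were collected on amylose resin, washed three times, digested with proteinase K to free the DNA, barcoded by PCR and sequenced by Illumina. Binding is the pooled-replicate reads-per-million enrichment of pull-down over input.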

Sequence | binding signal
GATGATTGTTCTCCCAGCTGATGAATTTGGAGGGTCGAGTAAACAAATTTTCCTAATCTTTCTGTTCAAGCGCCATCTAC | 0.772 RPM ratio (pull-down/input)
GATGATTGTTCTCCCAGCTGATGAATTGCGACGCTCGAGTAAACAAATTTTCCTAATCTTTCTGTTCAAGCGCCATCTAC | 1.04 RPM ratio (pull-down/input)
GATGATTGTTCTCCCAGCTGATGAATTTTCAAAATCGAGTAAACAAATTTTCCTAATCTTTCTGTTCAAGCGCCATCTAC | 1.19 RPM ratio (pull-down/input)
GATGATTGTTCTCCCAGCTGATGAATTACGCACATCGAGTAAACAAATTTTCCTAATCTTTCTGTTCAAGCGCCATCTAC | 1.13 RPM ratio (pull-down/input)
GATGATTGTTCTCCCAGCTGATGAATTGGTGATATCGAGTAAACAAATTTTCCTAATCTTTCTGTTCAAGCGCCATCTAC | 1.18 RPM ratio (pull-down/input)
GATGATTGTTCTCCCAGCTGATGAATTGGTTTAGTCGAGTAAACAAATTTTCCTAATCTTTCTGTTCAAGCGCCATCTAC | 0.972 RPM ratio (pull-down/input)
GATGATTGTTCTCCCAGCTGATGAATTCGTGGGTTCGAGTAAACAAATTTTCCTAATCTTTCTGTTCAAGCGCCATCTAC | 0.815 RPM ratio (pull-down/input)
GATGATTGTTCTCCCAGCTGATGAATTATTGCAGTCGAGTAAACAAATTTTCCTAATCTTTCTGTTCAAGCGCCATCTAC | 1.17 RPM ratio (pull-down/input)
GATGATTGTTCTCCCAGCTGATGAATTCCGGTCATCGAGTAAACAAATTTTCCTAATCTTTCTGTTCAAGCGCCATCTAC | 0.836 RPM ratio (pull-down/input)
GATGATTGTTCTCCCAGCTGATGAATTAGTTTTATCGAGTAAACAAATTTTCCTAATCTTTCTGTTCAAGCGCCATCTAC | 1.02 RPM ratio (pull-down/input)
GATGATTGTTCTCCCAGCTGATGAATTTTCGTCCTCGAGTAAACAAATTTTCCTAATCTTTCTGTTCAAGCGCCATCTAC | 0.907 RPM ratio (pull-down/input)
GATGATTGTTCTCCCAGCTGATGAATTCGTTCGGTCGAGTAAACAAATTTTCCTAATCTTTCTGTTCAAGCGCCATCTAC | 0.762 RPM ratio (pull-down/input)
GATGATTGTTCTCCCAGCTGATGAATTAGAGTTATCGAGTAAACAAATTTTCCTAATCTTTCTGTTCAAGCGCCATCTAC | 0.959 RPM ratio (pull-down/input)
GATGATTGTTCTCCCAGCTGATGAATTAATGAAATCGAGTAAACAAATTTTCCTAATCTTTCTGTTCAAGCGCCATCTAC | 0.987 RPM ratio (pull-down/input)
GATGATTGTTCTCCCAGCTGATGAATTATGGTCTTCGAGTAAACAAATTTTCCTAATCTTTCTGTTCAAGCGCCATCTAC | 1.03 RPM ratio (pull-down/input)
GATGATTGTTCTCCCAGCTGATGAATTACTCCACTCGAGTAAACAAATTTTCCTAATCTTTCTGTTCAAGCGCCATCTAC | 0.986 RPM ratio (pull-down/input)
GATGATTGTTCTCCCAGCTGATGAATTAACAGCGTCGAGTAAACAAATTTTCCTAATCTTTCTGTTCAAGCGCCATCTAC | 1 RPM ratio (pull-down/input)
GATGATTGTTCTCCCAGCTGATGAATTCATAATATCGAGTAAACAAATTTTCCTAATCTTTCTGTTCAAGCGCCATCTAC | 1.38 RPM ratio (pull-down/input)
GATGATTGTTCTCCCAGCTGATGAATTATATCTATCGAGTAAACAAATTTTCCTAATCTTTCTGTTCAAGCGCCATCTAC | 0.985 RPM ratio (pull-down/input)
GATGATTGTTCTCCCAGCTGATGAATTGACGGACTCGAGTAAACAAATTTTCCTAATCTTTCTGTTCAAGCGCCATCTAC | 0.907 RPM ratio (pull-down/input)
GATGATTGTTCTCCCAGCTGATGAATTGGTAAACTCGAGTAAACAAATTTTCCTAATCTTTCTGTTCAAGCGCCATCTAC | 1.46 RPM ratio (pull-down/input)

Sequence | binding signal
GATGATTGTTCTCCCAGCTGATGAATTCAGGGAATCGAGTAAACAAATTTTCCTAATCTTTCTGTTCAAGCGCCATCTAC | 0.936 RPM ratio (pull-down/input)
GATGATTGTTCTCCCAGCTGATGAATTCGGACGCTCGAGTAAACAAATTTTCCTAATCTTTCTGTTCAAGCGCCATCTAC | 0.864 RPM ratio (pull-down/input)
GATGATTGTTCTCCCAGCTGATGAATTCGCTTCGTCGAGTAAACAAATTTTCCTAATCTTTCTGTTCAAGCGCCATCTAC | 0.818 RPM ratio (pull-down/input)
GATGATTGTTCTCCCAGCTGATGAATTGGCGAGCTCGAGTAAACAAATTTTCCTAATCTTTCTGTTCAAGCGCCATCTAC | 0.738 RPM ratio (pull-down/input)
GATGATTGTTCTCCCAGCTGATGAATTCGAGTCCTCGAGTAAACAAATTTTCCTAATCTTTCTGTTCAAGCGCCATCTAC | 0.798 RPM ratio (pull-down/input)
GATGATTGTTCTCCCAGCTGATGAATTTCTTTATTCGAGTAAACAAATTTTCCTAATCTTTCTGTTCAAGCGCCATCTAC | 0.979 RPM ratio (pull-down/input)
GATGATTGTTCTCCCAGCTGATGAATTCTCTCACTCGAGTAAACAAATTTTCCTAATCTTTCTGTTCAAGCGCCATCTAC | 0.851 RPM ratio (pull-down/input)
GATGATTGTTCTCCCAGCTGATGAATTATATGCATCGAGTAAACAAATTTTCCTAATCTTTCTGTTCAAGCGCCATCTAC | 1.45 RPM ratio (pull-down/input)
GATGATTGTTCTCCCAGCTGATGAATTAGTTAGTTCGAGTAAACAAATTTTCCTAATCTTTCTGTTCAAGCGCCATCTAC | 0.968 RPM ratio (pull-down/input)
GATGATTGTTCTCCCAGCTGATGAATTCATGGAGTCGAGTAAACAAATTTTCCTAATCTTTCTGTTCAAGCGCCATCTAC | 0.818 RPM ratio (pull-down/input)
GATGATTGTTCTCCCAGCTGATGAATTGATGGTTTCGAGTAAACAAATTTTCCTAATCTTTCTGTTCAAGCGCCATCTAC | 1.01 RPM ratio (pull-down/input)
GATGATTGTTCTCCCAGCTGATGAATTCTGGTTTTCGAGTAAACAAATTTTCCTAATCTTTCTGTTCAAGCGCCATCTAC | 0.965 RPM ratio (pull-down/input)
GATGATTGTTCTCCCAGCTGATGAATTCGCGAAATCGAGTAAACAAATTTTCCTAATCTTTCTGTTCAAGCGCCATCTAC | 1.01 RPM ratio (pull-down/input)
GATGATTGTTCTCCCAGCTGATGAATTAACTTCGTCGAGTAAACAAATTTTCCTAATCTTTCTGTTCAAGCGCCATCTAC | 0.86 RPM ratio (pull-down/input)
GATGATTGTTCTCCCAGCTGATGAATTTGTATCCTCGAGTAAACAAATTTTCCTAATCTTTCTGTTCAAGCGCCATCTAC | 1.34 RPM ratio (pull-down/input)
GATGATTGTTCTCCCAGCTGATGAATTTGCCACATCGAGTAAACAAATTTTCCTAATCTTTCTGTTCAAGCGCCATCTAC | 1.12 RPM ratio (pull-down/input)
GATGATTGTTCTCCCAGCTGATGAATTCTCAATTTCGAGTAAACAAATTTTCCTAATCTTTCTGTTCAAGCGCCATCTAC | 0.926 RPM ratio (pull-down/input)
GATGATTGTTCTCCCAGCTGATGAATTGTTCATGTCGAGTAAACAAATTTTCCTAATCTTTCTGTTCAAGCGCCATCTAC | 1.07 RPM ratio (pull-down/input)
GATGATTGTTCTCCCAGCTGATGAATTCATCCGTTCGAGTAAACAAATTTTCCTAATCTTTCTGTTCAAGCGCCATCTAC | 0.869 RPM ratio (pull-down/input)
GATGATTGTTCTCCCAGCTGATGAATTATTGCCCTCGAGTAAACAAATTTTCCTAATCTTTCTGTTCAAGCGCCATCTAC | 1.08 RPM ratio (pull-down/input)
GATGATTGTTCTCCCAGCTGATGAATTCTCCAACTCGAGTAAACAAATTTTCCTAATCTTTCTGTTCAAGCGCCATCTAC | 0.831 RPM ratio (pull-down/input)

Sequence | binding signal
GATGATTGTTCTCCCAGCTGATGAATTAATCGTGTCGAGTAAACAAATTTTCCTAATCTTTCTGTTCAAGCGCCATCTAC | 0.998 RPM ratio (pull-down/input)
GATGATTGTTCTCCCAGCTGATGAATTCTTAGAATCGAGTAAACAAATTTTCCTAATCTTTCTGTTCAAGCGCCATCTAC | 0.879 RPM ratio (pull-down/input)
GATGATTGTTCTCCCAGCTGATGAATTACTCCTCTCGAGTAAACAAATTTTCCTAATCTTTCTGTTCAAGCGCCATCTAC | 1.05 RPM ratio (pull-down/input)
GATGATTGTTCTCCCAGCTGATGAATTCCAAACGTCGAGTAAACAAATTTTCCTAATCTTTCTGTTCAAGCGCCATCTAC | 0.797 RPM ratio (pull-down/input)
GATGATTGTTCTCCCAGCTGATGAATTACATCCGTCGAGTAAACAAATTTTCCTAATCTTTCTGTTCAAGCGCCATCTAC | 1.11 RPM ratio (pull-down/input)
GATGATTGTTCTCCCAGCTGATGAATTTTGATCGTCGAGTAAACAAATTTTCCTAATCTTTCTGTTCAAGCGCCATCTAC | 0.904 RPM ratio (pull-down/input)
GATGATTGTTCTCCCAGCTGATGAATTAACTAGTTCGAGTAAACAAATTTTCCTAATCTTTCTGTTCAAGCGCCATCTAC | 0.874 RPM ratio (pull-down/input)
GATGATTGTTCTCCCAGCTGATGAATTAATCCTGTCGAGTAAACAAATTTTCCTAATCTTTCTGTTCAAGCGCCATCTAC | 0.881 RPM ratio (pull-down/input)
GATGATTGTTCTCCCAGCTGATGAATTATGGAATTCGAGTAAACAAATTTTCCTAATCTTTCTGTTCAAGCGCCATCTAC | 0.941 RPM ratio (pull-down/input)
GATGATTGTTCTCCCAGCTGATGAATTTGTAAAATCGAGTAAACAAATTTTCCTAATCTTTCTGTTCAAGCGCCATCTAC | 1.24 RPM ratio (pull-down/input)
GATGATTGTTCTCCCAGCTGATGAATTGCGCGTCTCGAGTAAACAAATTTTCCTAATCTTTCTGTTCAAGCGCCATCTAC | 1.06 RPM ratio (pull-down/input)
GATGATTGTTCTCCCAGCTGATGAATTGTGAGCTTCGAGTAAACAAATTTTCCTAATCTTTCTGTTCAAGCGCCATCTAC | 1 RPM ratio (pull-down/input)
GATGATTGTTCTCCCAGCTGATGAATTGGATTCTTCGAGTAAACAAATTTTCCTAATCTTTCTGTTCAAGCGCCATCTAC | 0.813 RPM ratio (pull-down/input)
GATGATTGTTCTCCCAGCTGATGAATTTATGTCGTCGAGTAAACAAATTTTCCTAATCTTTCTGTTCAAGCGCCATCTAC | 1.14 RPM ratio (pull-down/input)
GATGATTGTTCTCCCAGCTGATGAATTCCAAAGCTCGAGTAAACAAATTTTCCTAATCTTTCTGTTCAAGCGCCATCTAC | 0.716 RPM ratio (pull-down/input)
GATGATTGTTCTCCCAGCTGATGAATTTCTATTCTCGAGTAAACAAATTTTCCTAATCTTTCTGTTCAAGCGCCATCTAC | 0.816 RPM ratio (pull-down/input)
GATGATTGTTCTCCCAGCTGATGAATTTGGATACTCGAGTAAACAAATTTTCCTAATCTTTCTGTTCAAGCGCCATCTAC | 1.07 RPM ratio (pull-down/input)
GATGATTGTTCTCCCAGCTGATGAATTCCCCCAATCGAGTAAACAAATTTTCCTAATCTTTCTGTTCAAGCGCCATCTAC | 0.94 RPM ratio (pull-down/input)
GATGATTGTTCTCCCAGCTGATGAATTTCAAAACTCGAGTAAACAAATTTTCCTAATCTTTCTGTTCAAGCGCCATCTAC | 0.849 RPM ratio (pull-down/input)
GATGATTGTTCTCCCAGCTGATGAATTGCTAGCTTCGAGTAAACAAATTTTCCTAATCTTTCTGTTCAAGCGCCATCTAC | 0.984 RPM ratio (pull-down/input)
GATGATTGTTCTCCCAGCTGATGAATTCCTCGCGTCGAGTAAACAAATTTTCCTAATCTTTCTGTTCAAGCGCCATCTAC | 0.864 RPM ratio (pull-down/input)
